From patent publication US20240247080A1, “GLP1/GIP/NPY2 RECEPTOR TRIPLE AGONISTS” (Boehringer Ingelheim International GmbH, priority 2022, published 2024)
pEC50: −log10 of the molar value. Where two headings read alike, the source gives them in different places. At least one compound was matched to its structure with a doubt left. Starred links: 1 amine or outer side, 2 acyl side, 3 side chain; linkers in the order of their positions; H or OH if unused. Non-standard residues stand in square brackets, D forms with d. Groups on a side chain read outwards from the residue. No end group written: not given here. *: point of attachment. C20 diacid = O=C(O)CCCCCCCCCCCCCCCCCCC(=O)*; C18 diacid = O=C(O)CCCCCCCCCCCCCCCCC(=O)*; γGlu = O=C(O)[C@H](CCC(=O)[*:2])N[*:1]; εLys = N[C@@H](CCCCN[*:1])C(=O)[*:2]; AEEA = NCCOCCOCC(=O)O; Aib = CC(C)(N)C(=O)O; Ahx = NCCCCCC(=O)O

How the values were obtained:
Format in all cases: cell-based
hGLP1R = target: T1, hGLP1R (Homo sapiens, UniProt P43220); experiment: hGLP1R CreLuc reporter gene assay in 0.5% and 100% plasma
T1 construct: expressed in transfected cells; host or cells: HEK-293 cells carrying a CRE-luciferase reporter gene
T1 sequence (P43220 24-463): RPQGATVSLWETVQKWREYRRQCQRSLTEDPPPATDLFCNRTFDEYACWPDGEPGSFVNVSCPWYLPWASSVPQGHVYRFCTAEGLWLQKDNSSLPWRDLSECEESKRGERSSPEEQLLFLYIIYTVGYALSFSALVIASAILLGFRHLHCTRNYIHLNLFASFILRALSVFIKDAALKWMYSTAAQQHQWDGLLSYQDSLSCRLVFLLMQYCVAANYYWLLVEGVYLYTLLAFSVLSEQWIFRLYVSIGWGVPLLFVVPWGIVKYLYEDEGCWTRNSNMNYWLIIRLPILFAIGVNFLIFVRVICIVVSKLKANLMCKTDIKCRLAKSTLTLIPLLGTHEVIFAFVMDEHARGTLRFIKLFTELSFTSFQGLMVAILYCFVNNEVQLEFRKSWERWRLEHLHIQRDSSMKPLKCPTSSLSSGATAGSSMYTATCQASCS
Description: (§1) Example 1: hGLPR/hGIPR/hNPY2R CreLuc Assay in 0.5% and 100% Plasma
(§2) CHO and HEK-293 recombinant cell lines express a luciferase reporter gene under control of the cAMP responsive element (CRE). As a second recombinant protein the GLP-1 and NPY2 receptors were expressed in the reporter gene HEK cells, and the GIP receptor was expressed in the reporter gene CHO cells, respectively. Stimulation of these recombinant cells with an agonist leads to an increase of intracellular cAMP levels. In the presence of cAMP, the transcription factor CRE binding protein (CREB) binds to the CRE and to the CREB binding protein (CBP), which leads to transcription of the luciferase reporter gene. Peptides upon serial-dilution in 100% DMSO were transferred into 384-well assay plates with 5 μl pre-dispensed assay buffer (1×HBSS, 20 mM HEPES, pH7.4 supplemented with 0.5% human plasma) using acoustic dispensing on a Labcyte ECHO. Cryo-preserved transgenic reporter gene cells were thawed in assay buffer. 20 μl (10.000 cells/well) were added to the plate with the peptides and incubated for 4 hours at 37° C. in a humidified incubator. Following incubation, assay plates are equilibrated to room temperature, followed by addition of 25 μl of Bright-GIo™ Luciferase reagent, incubation at room temperature for 10 minutes and analysis of luminescence (Envision Reader). Concentration response evaluation of compounds was performed with 8 concentrations of peptides (covering four decades). EC50 values were calculated by non-linear regression using sigmoid concentration-response with variable slope. The same assays were run in the presence of 100% plasma with no additional buffer constituents.

hGIPR = target: T2, hGIPR (Homo sapiens, UniProt P48546); experiment: hGIPR CreLuc reporter gene assay in 0.5% and 100% plasma
T2 construct: expressed in transfected cells; host or cells: CHO cells carrying a CRE-luciferase reporter gene
T2 sequence (P48546 22-466): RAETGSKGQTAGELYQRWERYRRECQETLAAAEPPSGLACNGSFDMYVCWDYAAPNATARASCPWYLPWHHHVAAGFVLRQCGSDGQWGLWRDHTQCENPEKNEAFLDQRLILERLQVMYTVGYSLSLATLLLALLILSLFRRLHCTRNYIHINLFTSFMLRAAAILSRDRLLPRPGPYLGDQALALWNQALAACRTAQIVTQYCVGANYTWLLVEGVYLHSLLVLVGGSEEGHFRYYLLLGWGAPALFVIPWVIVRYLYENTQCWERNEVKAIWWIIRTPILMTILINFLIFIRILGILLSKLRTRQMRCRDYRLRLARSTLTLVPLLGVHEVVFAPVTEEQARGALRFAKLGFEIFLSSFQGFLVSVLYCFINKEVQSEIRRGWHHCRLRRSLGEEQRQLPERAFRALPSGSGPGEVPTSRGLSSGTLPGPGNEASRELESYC
Description: as §1, §2

hNPY2R = target: T3, hNPY2R (Homo sapiens, UniProt P49146); experiment: hNPY2R CreLuc reporter gene assay in 0.5% and 100% plasma; details: 0.5% human plasma, read-out: hNPY2R 0.5% hP
T3 construct: expressed in transfected cells; host or cells: HEK-293 cells carrying a CRE-luciferase reporter gene
T3 sequence (P49146 1-381): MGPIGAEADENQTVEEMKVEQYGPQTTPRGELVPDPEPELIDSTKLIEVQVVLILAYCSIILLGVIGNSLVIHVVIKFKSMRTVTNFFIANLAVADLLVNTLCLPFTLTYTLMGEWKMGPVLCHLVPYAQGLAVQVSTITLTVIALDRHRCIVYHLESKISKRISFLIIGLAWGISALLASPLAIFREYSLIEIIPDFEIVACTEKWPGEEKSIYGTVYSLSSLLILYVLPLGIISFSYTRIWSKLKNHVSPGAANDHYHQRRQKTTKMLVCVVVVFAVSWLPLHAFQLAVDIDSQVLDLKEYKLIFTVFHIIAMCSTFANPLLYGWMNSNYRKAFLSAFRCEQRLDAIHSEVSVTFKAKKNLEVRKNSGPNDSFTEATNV
Description: as §1, §2

[1] = 0.5% human plasma, read-out: hGLP1R 0.5% hP
[2] = 0.5% human plasma, read-out: hGIPR 0.5% hP
[3] = 100% human plasma, read-out: hGIPR 100% hP

Molecule	pEC50 (hGLP1R; [1])	pEC50 (hGIPR; [2])	pEC50 (hGIPR; [3])	pEC50 (hNPY2R)	pEC50 (hGLP1R; 100% human plasma, read-out: hGLP1R 100% hP)
Y[Aib]EGTFTSDYSI[Aib]LEKQAQ[Aib]EFVQWLIK([Ahx-γGlu-γGlu-Glu-γGlu-γGlu-γGlu-C18 diacid])GGPSEGASLRHYYNWLTRQRY-NH2 [Compound 164, Y-Aib-E-G-T-F-T-S-D-Y-S-I-Aib-L-E-K-Q-A-Q-Aib-E-F-V-Q-W-L-I-K(1,3)-GGPSEGASLRHYYNWLTRQRY-NH2.C18DA-gGlu-gGlu-gGlu-Glu-gGlu-gGlu-AHX(1,2)]	9.55	9.60	8.90	–	–
Y[Aib]EGTFTSDYSI[Aib]LEKQAQ[Aib]AFVQWLIK([εLys-γGlu-Glu-γGlu-γGlu-γGlu-C20 diacid])GGPSYYASLRHYYNWLTRQRY-NH2 [Compound 59, Y-Aib-E-G-T-F-T-S-D-Y-S-I-Aib-L-E-K-Q-A-Q-Aib-A-F-V-Q-W-L-I-K(1,3)-GGPSYYASLRHYYNWLTRQRY-NH2.C20DA-gGlu-gGlu-gGlu-Glu-gGlu-eLys(1,2)]	–	9.31	–	7.97	–
Y[Aib]EGTFTSDYSI[Aib]LEKQAE[Aib]AFVEWLIK([AEEA-AEEA-Glu-γGlu-γGlu-γGlu-C20 diacid])GGPSEGASLRHYYNWLTRQRY-NH2 [Compound 278, Y-Aib-E-G-T-F-T-S-D-Y-S-I-Aib-L-E-K-Q-A-E-Aib-A-F-V-E-W-L-I-K(1,3)-GGPSEGASLRHYYNWLTRQRY-NH2.C20DA-gGlu-gGlu-gGlu-Glu-OEG-OEG(1,2)]	–	9.85	8.86	7.76	–
Y[Aib]EGTFTSDYSI[Aib]LEKQAQ[Aib]AFVQWLIK([εLys-γGlu-γGlu-γGlu-Glu-γGlu-γGlu-γGlu-C20 diacid])GGPSSGASLRHYYNWLTRQRY-NH2 [Compound 92, Y-Aib-E-G-T-F-T-S-D-Y-S-I-Aib-L-E-K-Q-A-Q-Aib-A-F-V-Q-W-L-I-K(1,3)-GGPSSGASLRHYYNWLTRQRY-NH2.C20DA-gGlu-gGlu-gGlu-Glu-gGlu-gGlu-gGlu-eLys(1,2)]	10.10	9.48	8.79	–	–
Y[Aib]EGTFTSDYSI[Aib]LEEQAQ[Aib]AFVEWLIK([εLys-εLys-γGlu-Glu-γGlu-γGlu-γGlu-C20 diacid])GGPSSGASLRHYYNWLTRQRY-NH2 [Compound 105, Y-Aib-E-G-T-F-T-S-D-Y-S-I-Aib-L-E-E-Q-A-Q-Aib-A-F-V-E-W-L-I-K(1,3)-GGPSSGASLRHYYNWLTRQRY-NH2.C20DA-gGlu-gGlu-gGlu-Glu-gGlu-eLys-eLys(1,2)]	9.85	9.70	9.06	–	8.78
CC[C@H](C)[C@H](NC(=O)[C@H](CC(C)C)NC(=O)[C@H](Cc1c[nH]c2ccccc12)NC(=O)[C@H](CCC(=O)O)NC(=O)[C@@H](NC(=O)[C@H](Cc1ccccc1)NC(=O)[C@H](C)NC(=O)C(C)(C)NC(=O)[C@H](CCC(N)=O)NC(=O)[C@H](C)NC(=O)[C@H](CCC(N)=O)NC(=O)[C@H](CCCCN)NC(=O)[C@H](CCC(=O)O)NC(=O)[C@H](CC(C)C)NC(=O)C(C)(C)NC(=O)[C@@H](NC(=O)[C@H](CO)NC(=O)[C@H](Cc1ccc(O)cc1)NC(=O)[C@H](CC(=O)O)NC(=O)[C@H](CO)NC(=O)[C@@H](NC(=O)[C@H](Cc1ccccc1)NC(=O)[C@@H](NC(=O)CNC(=O)[C@H](CCC(=O)O)NC(=O)C(C)(C)NC(=O)[C@@H](N)Cc1ccc(O)cc1)[C@@H](C)O)[C@@H](C)O)[C@@H](C)CC)C(C)C)C(=O)N[C@@H](CCCCNC(=O)[C@@H](N)CCCCNC(=O)CC[C@H](NC(=O)CC[C@H](NC(=O)CC[C@H](NC(=O)CC[C@H](NC(=O)CC[C@H](NC(=O)CC[C@H](NC(=O)CCCCCCCCCCCCCCCCCCC(=O)O)C(=O)O)C(=O)O)C(=O)O)C(=O)O)C(=O)O)C(=O)O)C(=O)NCC(=O)NCC(=O)N1CCC[C@H]1C(=O)N[C@@H](CO)C(=O)N[C@@H](CO)C(=O)NCC(=O)N[C@@H](C)C(=O)N[C@@H](CO)C(=O)N[C@@H](CC(C)C)C(=O)N[C@@H](CCCNC(=N)N)C(=O)N[C@@H](Cc1c[nH]cn1)C(=O)N[C@@H](Cc1ccc(O)cc1)C(=O)N[C@@H](Cc1ccc(O)cc1)C(=O)N[C@@H](CC(N)=O)C(=O)N[C@@H](CCCNC(=N)N)C(=O)NC(C)(C)C(=O)N[C@H](C(=O)N[C@@H](CCCNC(=N)N)C(=O)N[C@@H](CCC(N)=O)C(=O)N[C@@H](CCCNC(=N)N)C(=O)N[C@@H](Cc1ccc(O)cc1)C(N)=O)[C@@H](C)O [Compound 68, Y-Aib-E-G-T-F-T-S-D-Y-S-I-Aib-L-E-K-Q-A-Q-Aib-A-F-V-E-W-L-I-K(1,3)-G-G-P-S-S-G-A-S-L-R-H-Y-Y-N-R-Aib-T-R-Q-R-Y-NH2.C20DA-gGlu-gGlu-gGlu-gGlu-gGlu-gGlu-eLys(1,2)]	9.92	9.49	–	–	–
CC[C@H](C)[C@H](NC(=O)[C@H](CC(C)C)NC(=O)[C@H](Cc1c[nH]c2ccccc12)NC(=O)[C@H](CCC(N)=O)NC(=O)[C@@H](NC(=O)[C@H](Cc1ccccc1)NC(=O)[C@H](C)NC(=O)C(C)(C)NC(=O)[C@H](CCC(N)=O)NC(=O)[C@H](C)NC(=O)[C@H](CCC(N)=O)NC(=O)[C@H](CCCCN)NC(=O)[C@H](CCC(=O)O)NC(=O)[C@H](CC(C)C)NC(=O)C(C)(C)NC(=O)[C@@H](NC(=O)[C@H](CO)NC(=O)[C@H](Cc1ccc(O)cc1)NC(=O)[C@H](CC(=O)O)NC(=O)[C@H](CO)NC(=O)[C@@H](NC(=O)[C@H](Cc1ccccc1)NC(=O)[C@@H](NC(=O)CNC(=O)[C@H](CCC(=O)O)NC(=O)C(C)(C)NC(=O)[C@@H](N)Cc1ccc(O)cc1)[C@@H](C)O)[C@@H](C)O)[C@@H](C)CC)C(C)C)C(=O)N[C@@H](CCCCNC(=O)[C@@H](N)CCCCNC(=O)[C@H](CCC(=O)O)NC(=O)CC[C@H](NC(=O)[C@H](CCC(=O)O)NC(=O)CC[C@H](NC(=O)CC[C@H](NC(=O)CC[C@H](NC(=O)CCCCCCCCCCCCCCCCCCC(=O)O)C(=O)O)C(=O)O)C(=O)O)C(=O)O)C(=O)NCC(=O)NCC(=O)N[C@@H](CCC(N)=O)C(=O)N[C@@H](CCCNC(=N)N)C(=O)N[C@@H](Cc1ccc(O)cc1)C(=O)N[C@@H](Cc1ccc(O)cc1)C(=O)N[C@@H](C)C(=O)N[C@@H](CO)C(=O)N[C@@H](CC(C)C)C(=O)N[C@@H](CCCNC(=N)N)C(=O)N[C@@H](Cc1c[nH]cn1)C(=O)N[C@@H](Cc1ccc(O)cc1)C(=O)N[C@@H](Cc1ccc(O)cc1)C(=O)N[C@@H](CC(N)=O)C(=O)N[C@@H](Cc1c[nH]c2ccccc12)C(=O)N[C@@H](CC(C)C)C(=O)N[C@H](C(=O)N[C@@H](CCCNC(=N)N)C(=O)N[C@@H](CCC(N)=O)C(=O)N[C@@H](CCCNC(=N)N)C(=O)N[C@@H](Cc1ccc(O)cc1)C(N)=O)[C@@H](C)O [Compound 6, Y-Aib-E-G-T-F-T-S-D-Y-S-I-Aib-L-E-K-Q-A-Q-Aib-A-F-V-Q-W-L-I-K(1,3)-GGQRYYASLRHYYNWLTRQRY-NH2.C20DA-gGlu-gGlu-gGlu-Glu-gGlu-Glu-eLys(1,2)]	–	–	–	7.77	–
Y[Aib]EGTFTSDYSI[Aib]LEKQAQ[Aib]AFVQWLIK([γGlu-Glu-γGlu-γGlu-γGlu-γGlu-C18 diacid])GGPSSGASLRHYYNWLTRQRY-NH2 [Compound 147, Y-Aib-E-G-T-F-T-S-D-Y-S-I-Aib-L-E-K-Q-A-Q-Aib-A-F-V-Q-W-L-I-K(1,3)-GGPSSGASLRHYYNWLTRQRY-NH2.C18DA-gGlu-gGlu-gGlu-gGlu-Glu-gGlu(1,2)]	10.10	9.72	–	–	–
Y[Aib]EGTFTSDYSI[Aib]LEKQAQ[Aib]AFVEWLIK([εLys-γGlu-Glu-γGlu-γGlu-γGlu-C20 diacid])GGPSSYASLRHYYNWLTRQRY-NH2 [Compound 183, Y-Aib-E-G-T-F-T-S-D-Y-S-I-Aib-L-E-K-Q-A-Q-Aib-A-F-V-E-W-L-I-K(1,3)-GGPSSYASLRHYYNWLTRQRY-NH2.C20DA-gGlu-gGlu-gGlu-Glu-gGlu-eLys(1,2)]	9.66	9.55	–	–	–
